PubChem BioAssay AID652104 (National Center for Advancing Translational Sciences (NCATS), 2013)
Screen size: about 410,000 compounds; about 7,200 (1.8%) were called active. Inconclusive results, whose numbers are uncertain, are shown with a selection of clear calls. Calls come from the whole dose curve; as a rule, active = well fitted activation curve with a large enough effect; inconclusive = small, poorly fitted or top-dose-only effect, or another doubt; inactive = no such curve, though single readings can be large or run the other way. No potency is given beside an inconclusive call; the fits are too rough.

Test: qHTS of TDP-43 Inhibitors; note: nearly all actives have a fitted effect of over 50% in size
Settings: TDP-43 expressing yeast growth rescue, BacTiter-Glo, 24 h; series mostly up to 46.1 µM
In short: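 Cell-based yeast growth screen: TDP-43 expression induced in galactose, inoculum OD600=0.02 after raffinose pregrowth to mid-log. Read-out BacTiter-Glo luminescence at 24 hr, 30 deg C; inhibition of toxicity seen as signal increase.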
Potency is the fitted concentration of half-maximal effect; tags give direction and shape of the fitted curve.

Q: Which Potency does the source give for C=CCc1ccc(OCCOc2cccc3cccnc23)c(OC)c1 here?
A: The Potency was inconclusive [activator, partial curve, poor fit].

Q: Which Potency does the source give for COC(=O)c1ccc(CSc2nc3ccccc3c(=O)n2Cc2ccco2)o1 here?
A: The Potency was inconclusive [activator, single point].

Q: For CCC(C)NC(=O)c1ccc(C(=O)c2ccccc2)cc1 (stereo unspecified), which Potency is on record?
A: The Potency was inconclusive [activator, single point].

Q: Which Potency does the source give for CC1(C(=O)NS(=O)(=O)c2ccc(Cl)s2)CCN1C(=O)c1ccc(C2CCCCC2)cc1 (stereo unspecified) here?
A: The Potency was inconclusive [activator, partial curve, poor fit].

Q: For CSc1ccc(Cc2ccc(Cl)cc2Cl)nn1, which Potency is on record?
A: The Potency was active: 11.2 µM.

Q: For COc1ccccc1-c1cc2nc(NCc3cccc(Cl)c3)ccn2n1, which Potency is on record?
A: The Potency was active: 17.8 µM.

Q: With O=C(c1ccccc1)c1nn(-c2ccccc2)c(=O)cc1C(F)(F)F as the compound, how does the Potency read?
A: Its Potency is inconclusive [activator, single point].

Q: Which Potency does the source give for N#CC1=C(N)N(c2ccc(Cl)cc2)C2=C(C(=O)CCC2)C1c1cc(CN2CCOCC2)cs1 (stereo unspecified) here?
A: Its Potency is “inactive”.

Q: With O=C1CCCc2nc(N3CCCCC3)sc21 as the compound, how does the Potency read?
A: Its Potency is “inactive”.

Q: Which Potency does the source give for CCCCCCc1nnc(NC(=O)OCC)s1 here?
A: Its Potency is inconclusive [activator, single point].

Q: Which Potency does the source give for COc1ccc(-c2csc3ncnc(Nc4ccc(OC)cc4OC)c23)cc1 here?
A: Its Potency is “inactive”.

Q: With COc1ccc(/C(O)=C2/C(=O)C(=O)N(c3ccccn3)C2c2ccc(OC)cc2)cc1 (stereo unspecified) as the compound, how does the Potency read?
A: The Potency was “inactive”.

Q: With Cc1ccc(C)c(N=Nc2ccc(O)c3ncccc23)c1 as the compound, how does the Potency read?
A: The Potency was inconclusive [activator, partial curve].

Q: With S=C(N/N=C/c1ccccc1)N1CCOCC1 as the compound, how does the Potency read?
A: The Potency was active: 22.4 µM.

Q: Which Potency does the source give for O=C1[C@H]2[C@@H](c3ccccc3)N[C@]3(CCCN(Cc4ccc(Br)cc4)C3=O)[C@H]2C(=O)N1Cc1ccccc1 here?
A: Its Potency is inconclusive [activator, partial curve].

Q: For Cc1ccc(OCCn2c(CNc3ccccc3C)nc3ccccc32)cc1, which Potency is on record?
A: Its Potency is inconclusive [activator, partial curve].

Q: With O=C(Nc1nc(-c2ccncc2)cs1)C1COc2ccccc2O1 (stereo unspecified) as the compound, how does the Potency read?
A: The Potency was inconclusive [activator, single point].

Q: With COc1ccc(-c2sc3ccccc3c2-c2ccc(OCCN3CCOCC3)cc2)cc1 as the compound, how does the Potency read?
A: Its Potency is inconclusive [activator, partial curve].

Q: Which Potency does the source give for CNC(=S)N1N=C(c2ccccc2)CC1c1ccc(Br)cc1 (stereo unspecified) here?
A: The Potency was inconclusive [activator, single point].

Q: For O=C(CS(=O)(=O)c1cccc2nsnc12)N1CCN(c2ccc(F)cc2)CC1, which Potency is on record?
A: The Potency was inconclusive [activator, partial curve].

Q: With COCCCN(Cc1cc(OC)c(OC)c(OC)c1)C(=S)Nc1cccc(Cl)c1 as the compound, how does the Potency read?
A: Its Potency is inconclusive [activator, partial curve].

Q: With CCc1ccc(N(CC(=O)Nc2nc3ccc(C)cc3s2)S(=O)(=O)c2c(C)noc2C)cc1 as the compound, how does the Potency read?
A: Its Potency is inconclusive [activator, partial curve].

Q: For O=S(=O)(NCCc1csc(-c2cccnc2)n1)c1ccc(Cl)s1, which Potency is on record?
A: The Potency was active: 14.1 µM.

Q: For CCc1nnc(NC(=O)CSc2nnc(-c3ccccc3O)n2CC)s1, which Potency is on record?
A: The Potency was “inactive”.

Q: Which Potency does the source give for N/C(Cc1cccs1)=N\OC(=O)COc1ccc(Br)cc1 here?
A: Its Potency is inconclusive [activator, partial curve].

Q: With COc1ccc(S(=O)(=O)Nc2cccc(F)c2)cc1C as the compound, how does the Potency read?
A: The Potency was inconclusive [activator, partial curve].

Q: With COc1cc(/C=C/CO)cc(OC)c1OC/C=C(\C)CCC=C(C)C as the compound, how does the Potency read?
A: Its Potency is inconclusive [activator, single point].

Q: For CCC(NC(=O)CCCc1ccccc1)c1ccccc1 (stereo unspecified), which Potency is on record?
A: The Potency was inconclusive [activator, single point].

Q: With COc1cc(C2c3c(-c4ccccc4O)n[nH]c3C(=O)N2Cc2ccncc2)cc(OC)c1OC (stereo unspecified) as the compound, how does the Potency read?
A: The Potency was inconclusive [activator, partial curve].

Q: For CCCOc1c(Cl)cc(/C=N/O)cc1OCC, which Potency is on record?
A: Its Potency is inconclusive [activator, partial curve].

Q: Which Potency does the source give for Cc1[nH]c2ccccc2c1/C=N/NC(=O)c1cccc([N+](=O)[O-])c1 here?
A: The Potency was “inactive”.

Q: With C=CCOc1ccc(/C=C2\SC(=S)N(NS(=O)(=O)c3ccc(C)cc3)C2=O)cc1 as the compound, how does the Potency read?
A: Its Potency is “inactive”.

Q: With COc1cccc(CNC(=O)C2CCCN(c3nn4cc(-c5ccc(C)cc5)nc4s3)C2)c1 (stereo unspecified) as the compound, how does the Potency read?
A: Its Potency is “inactive”.

Q: Which Potency does the source give for COc1ccc2c(c1)c(=O)oc1cc(OCC(=O)NC3CCCCC3)ccc12 here?
A: Its Potency is active: 15.8 µM.

Q: With CC1(C(=O)Nc2ccc3[nH]ncc3c2)CCN1C(=O)Cc1ccc(-c2ccccc2)cc1 (stereo unspecified) as the compound, how does the Potency read?
A: Its Potency is inconclusive [activator, partial curve, poor fit].

Q: Which Potency does the source give for CC(C)c1ccc(NC(=O)CSc2nnc(-c3ccccn3)n2C)cc1 here?
A: Its Potency is inconclusive [activator, single point].

Q: Which Potency does the source give for CSc1ccc(S(=O)(=O)NCc2ccc(Cl)cc2Cl)cc1 here?
A: Its Potency is inconclusive [activator, single point].

Q: With Fc1ccccc1CSc1nnc2ccc(-c3ccncc3)nn12 as the compound, how does the Potency read?
A: The Potency was “inactive”.

Q: For CC1CN/C(=C\C(=O)c2ccc(Br)cc2)C(=O)N1 (stereo unspecified), which Potency is on record?
A: The Potency was inconclusive [activator, partial curve].

Q: With Cc1cc2ccccc2n1CCNC(=O)C1CCCCC1 as the compound, how does the Potency read?
A: The Potency was inconclusive [activator, full curve].

Q: For CC(C)(C)NC(=O)Cn1cc(S(=O)(=O)Cc2ccccc2Cl)c2ccccc21, which Potency is on record?
A: The Potency was “inactive”.

Q: With N#C/C(=C\Nc1ccccc1O)c1nc2ccccc2o1 as the compound, how does the Potency read?
A: The Potency was active: 7.08 µM.

Q: Which Potency does the source give for O=C(O)CCc1ccc(-c2ccc(F)cc2)n1Cc1ccco1 here?
A: The Potency was inconclusive [activator, single point].

Q: For COc1ccc(-c2csc(Nc3cccc(C)n3)n2)cc1, which Potency is on record?
A: The Potency was active: 17.8 µM.

Q: With CCc1cc(C(=O)N2CCN(c3ccccc3)CC2)no1 as the compound, how does the Potency read?
A: The Potency was inconclusive [activator, partial curve].

Q: With CC(=O)Oc1ccccc1C1=NN(C(=O)/C=C/c2ccccc2)C(c2ccccc2)C1 (stereo unspecified) as the compound, how does the Potency read?
A: Its Potency is “inactive”.

Q: For Cc1ccc(Oc2cc([N+](=O)[O-])cc3c2C(=O)Nc2ccccc2O3)cc1, which Potency is on record?
A: The Potency was “inactive”.

Q: For CCN1C(=O)c2cccc3c(S(=O)(=O)N4CCNCC4)ccc1c23, which Potency is on record?
A: The Potency was “inactive”.

Q: With CSc1ccccc1NC(=S)NC1CCCC1 as the compound, how does the Potency read?
A: The Potency was “inactive”.

Q: With CC(C)(CO)Cc1cc(C(C)(C)C)c(O)c(C(C)(C)C)c1 as the compound, how does the Potency read?
A: Its Potency is inconclusive [activator, partial curve].

Q: For O=C(NC1CCCCC1)c1cccc(NC(=O)c2ccccc2Cl)c1, which Potency is on record?
A: Its Potency is inconclusive [activator, full curve, poor fit].

Q: With CN(C)c1ccc(-c2nnc(-c3cccnc3)o2)cc1 as the compound, how does the Potency read?
A: Its Potency is active: 10 µM.

Q: For Cc1nc(/C(N)=N/OC(=O)c2ccc(Cl)cc2)c(C(F)(F)F)o1, which Potency is on record?
A: Its Potency is inconclusive [activator, partial curve].

Q: Which Potency does the source give for Cc1ccccc1C(=O)O/N=C(\c1ccccc1)c1ccccn1 here?
A: The Potency was inconclusive [activator, partial curve].

Q: For O=C(N1CCOCC1)C1(c2ccccc2)CCCCC1, which Potency is on record?
A: Its Potency is inconclusive [activator, partial curve, poor fit].

Q: Which Potency does the source give for CC(C)(C)S(=O)(=O)/C(C#N)=N/Nc1ccc(Cl)cc1 here?
A: The Potency was inconclusive [activator, partial curve].

Q: Which Potency does the source give for C=CCn1c(-c2ccc(Cl)cc2)c[nH]c1=S here?
A: The Potency was inconclusive [activator, partial curve].

Q: With Cc1cc(C)cc(NC(=O)CSc2nccn2C2CCCC2)c1 as the compound, how does the Potency read?
A: The Potency was inconclusive [activator, partial curve, poor fit].

Q: For COc1cccc(NC(=O)c2csc3c2CCCCC3)c1, which Potency is on record?
A: The Potency was active: 12.6 µM.

Q: Which Potency does the source give for CC(C)CN(C(=O)COC(=O)/C=C/c1ccc(Cl)c(Cl)c1)c1c(N)n(Cc2ccccc2)c(=O)[nH]c1=O here?
A: The Potency was inconclusive [activator, single point].

Q: Which Potency does the source give for Cc1ccc2nc(NC(=O)C3CCCN(S(=O)(=O)c4cccc5nsnc45)C3)sc2c1 (stereo unspecified) here?
A: Its Potency is inconclusive [activator, partial curve].

Q: With COc1cccc(C2C(C(N)=O)=C(C)Nc3nc(CCCO)nn32)c1 (stereo unspecified) as the compound, how does the Potency read?
A: The Potency was inconclusive [activator, full curve, poor fit].

Q: With COc1ccc(NCC(=O)Nc2ccc(C#N)cc2)cc1Cl as the compound, how does the Potency read?
A: The Potency was inconclusive [activator, full curve].

Q: For O=C(Nc1ccccc1)C1C(c2ccccc2)C1(Cl)Cl (stereo unspecified), which Potency is on record?
A: Its Potency is inconclusive [activator, full curve, poor fit].

Q: Which Potency does the source give for Cc1ccc(NC(=O)c2ccc(F)c(S(=O)(=O)NCCc3ccccc3)c2)cc1F here?
A: Its Potency is inconclusive [activator, single point].

Q: With C=CCOc1ccc(/C(CC)=N/O)c(OC)c1 as the compound, how does the Potency read?
A: The Potency was inconclusive [activator, single point].

Q: For O=C(CS(=O)(=O)c1nc(-c2ccc(Cl)cc2)cn1-c1ccccc1)Nc1cccc(Cl)c1, which Potency is on record?
A: Its Potency is inconclusive [activator, partial curve].

Q: With O=C(Cn1c2ncccc2c(=O)n1-c1ccccc1)NCc1ccccc1 as the compound, how does the Potency read?
A: Its Potency is active: 12.6 µM.

Q: Which Potency does the source give for Cc1cc(N2CCOCC2)n2ncc(-c3ccccc3Cl)c2n1 here?
A: The Potency was active: 12.6 µM.

Q: Which Potency does the source give for CCOc1ccc2nc(N(Cc3cccnc3)C(=O)c3ccco3)sc2c1 here?
A: The Potency was active: 20 µM.

Q: For CCOc1ccccc1N(CC)C(=O)Cn1ncc2c1-c1ccccc1OC2, which Potency is on record?
A: The Potency was inconclusive [activator, partial curve].
